# Laboratory results: the supplement of paper PMC3334620
# Whole data set: some 33,000 sequences, median “E-score (-0.5 to 0.5)” near -0.036, cut for the highest 2% near 0.37. Some of the results follow.
# Target: T1, Yer064c (UniProt P40041)
# T1 sequence: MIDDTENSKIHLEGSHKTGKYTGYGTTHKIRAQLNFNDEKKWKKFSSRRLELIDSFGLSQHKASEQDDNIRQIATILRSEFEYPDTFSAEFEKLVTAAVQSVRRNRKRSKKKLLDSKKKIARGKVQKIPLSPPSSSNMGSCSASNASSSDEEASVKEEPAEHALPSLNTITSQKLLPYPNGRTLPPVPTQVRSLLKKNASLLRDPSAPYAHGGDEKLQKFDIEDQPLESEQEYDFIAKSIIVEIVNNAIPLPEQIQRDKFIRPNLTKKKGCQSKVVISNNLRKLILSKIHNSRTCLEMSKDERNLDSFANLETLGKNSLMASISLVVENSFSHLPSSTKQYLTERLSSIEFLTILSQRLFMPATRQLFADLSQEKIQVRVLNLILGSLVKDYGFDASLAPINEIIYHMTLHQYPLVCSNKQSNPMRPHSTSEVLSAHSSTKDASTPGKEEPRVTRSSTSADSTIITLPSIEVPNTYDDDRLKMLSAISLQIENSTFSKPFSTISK
# Experiment: PBM E-score (8-mer binding enrichment) (E-score (-0.5 to 0.5)); higher = stronger / more preferred TF binding; most listed sequences are background and not binding sites
# Details: protein concentration: 200 nM; construct: GST-full length
# How it was run: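 The E-score, a modified Wilcoxon-Mann-Whitney statistic, was computed by the Universal PBM Analysis Suite for every ungapped eight-base word pooled with its reverse complement. Scans behind it were normalised with masliner after bound GST-tagged yeast transcription factors were detected with fluorescent anti-GST. The proteins, at about 100-200 nM, had been applied to universal all-10-mer Agilent arrays made double-stranded by primer extension.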
row,Sequence,PBM E-score
1,CCCTTTCG,-0.19
2,AACTTCAC,0.0098
3,AGGCTAGC,-0.127
4,AGTTCTAG,-0.0139
5,ATGTAACG,-0.038
6,AACTGGGG,-0.12
7,CAGCCAAG,-0.141
8,ATACTACC,-0.046
9,AAAGACAC,-0.0007
10,CGTCAGCC,-0.135
11,CGAACAAC,0.00761
12,ATAATACA,0.0732
13,ATAGTCCG,0.316
14,GATGGGCC,-0.384
15,GATGAACC,0.0652
16,TGAACACA,0.0693
17,GATGGCTA,0.359
18,TAAGAGAA,0.0902
19,AGTCATAG,0.482
20,ATAGGTAC,-0.138
21,CTTTCGAA,0.0203
22,AGACCATG,-0.00754
23,ACCTAGGG,-0.0507
24,CTCTACTC,-0.0437
25,AAACTAGA,0.0148

row,Sequence,PBM E-score
1,AATTCCCA,-0.163
2,GTTAGAGA,0.0539
3,AGAACTTA,0.13
4,CTGCTAAA,-0.141
5,CGTGGCGC,-0.0516
6,GCGGGACA,-0.356
7,AGTTACAT,-0.176
8,ATATCACA,-0.24
9,AAACGTAA,0.0259
10,AGATGGTA,-0.179
11,CACGGGTA,0.213
12,CAAGGGAC,-0.26
13,AGCGTCTG,-0.161
14,ATCGTTCC,-0.0746
15,TATTCAGA,0.0473
16,ACCCTTAG,0.0167
17,CTTAGCGC,0.168
18,CAGTAAGG,-0.124
19,AGAACGAC,0.2
20,AAACGAAT,0.0817
21,GGACCGCC,-0.325
22,ACCGTGCT,-0.0266
23,CAGGTATG,0.047
24,AGTATTGG,-0.0653
25,TCGGATCA,-0.0516

row,Sequence,PBM E-score
1,CTCCTGAC,0.117
2,CGCTCGAC,-0.105
3,TACCAATA,-0.0486
4,AAAAAGCA,0.0385
5,GAGTTCAC,0.204
6,AAAGGATG,-0.0536
7,CCACATAG,0.0537
8,AAAGTCAC,0.411
9,CCCCCTAA,-0.245
10,TCACTACA,0.16
11,GAGTCGGA,0.395
12,GGTGCAAC,-0.298
13,AGCTCGCG,-0.0129
14,ACGCCGAG,-0.123
15,AGGACGCG,-0.135
16,CACGACCG,-0.0955
17,AAAAGACG,0.0418
18,ACGTCTGC,-0.189
19,ACAAGTTA,-0.268
20,AGCTTATG,0.0502
21,CAGTAGAG,-0.0448
22,CTGGCAAG,0.0312
23,ATTATCTC,-0.0519
24,TAAGGAAA,-0.183
25,AGAGCCGG,-0.185

row,Sequence,PBM E-score
1,CGGTTCGA,0.088
2,ATTGTTAC,0.138
3,GGCTGGTA,-0.158
4,CCGATTCC,-0.0847
5,AGTTGTGC,-0.165
6,CCATCGGG,-0.143
7,AGGTGCAG,-0.0467
8,ATACTGGC,-0.00979
9,GATCCACC,-0.0608
10,AACGTGGT,0.0297
11,GAATTCTC,0.0192
12,AGAGCCCA,-0.173
13,GAAAGCCC,-0.113
14,ATGAAGAA,0.138
15,GCTCATAC,-0.0113
16,TATGACGA,0.0856
17,CTGCGGTC,-0.245
18,ATCAAGCA,0.0142
19,AGTCTATG,0.131
20,ATCCATAG,0.0332
21,CCTTAAAA,-0.0153
22,CCAGTATA,-0.0237
23,ACCTGAAT,0.162
24,CCCTGGTC,-0.18
25,CCCAATGC,-0.0661

row,Sequence,PBM E-score
1,GCGCGGAC,0.0396
2,GTAATTTA,0.0524
3,CGTTTTAA,0.0118
4,ACCAAAGG,-0.18
5,ATCGAACA,-0.057
6,CTAACTCA,0.203
7,CTAGATTC,-0.0405
8,ACATTTTA,0.0524
9,GCGTTCGA,-0.01
10,CGGATGGC,-0.0498
11,ACTCCACA,0.181
12,CTACTCAC,0.22
13,ATTCGGGC,-0.138
14,AACGGTTG,-0.142
15,TCCCTAAA,-0.113
16,GAGTATAA,0.212
17,ACGAATTA,-0.0361
18,AGACGGAA,0.026
19,AAAGTGAA,-0.0781
20,AAGTGACT,0.453
21,CCTGGTGA,0.0406
22,CAATCTCC,0.0118
23,AACCCGAC,0.122
24,CCCGCCAA,-0.29
25,GGCGCAAA,-0.102

row,Sequence,PBM E-score
1,AGCCCAAA,0.141
2,GCCAGAGC,-0.274
3,CGGGCGGC,-0.28
4,ACAGCAGT,-0.0762
5,AGAGGGAC,-0.0799
6,CGTGGGTC,0.0625
7,AAACTCAA,0.149
8,CGAAGCGA,0.0234
9,ATGTTTCC,-0.149
10,AAAATGGA,0.113
11,CAGTCAGC,0.406
12,CTTCAAAA,0.113
13,CATGTACG,-0.0155
14,ACTCAATA,0.315
15,GAATCGAA,0.124
16,GACCGACA,-0.0833
17,GCAATAAC,-0.142
18,GCTTTATA,-0.21
19,AATCGTAC,0.109
20,AATAGGAC,-0.0659
21,ATAGTATA,-0.186
22,CAGCGTTC,-0.0385
23,GCATGGAA,-0.169
24,AATGTATA,0.022
25,ACTGGACA,0.0574

row,Sequence,PBM E-score
1,ACTACTCT,0.239
2,GACCGAGC,-0.216
3,ACGTGACA,-0.138
4,AGAAACCT,-0.0388
5,AGCGTCTA,-0.112
6,GTCCGTCA,-0.00848
7,ACACCGAA,-0.00535
8,TACAACTA,0.0263
9,AGCAGCAC,-0.202
10,ATGAAACA,0.0318
11,CTGTCGTC,-0.139
12,CTGCTGAA,-0.0226
13,AGGGGTCG,-0.179
14,GACCAGCC,-0.238
15,AACACTAT,0.119
16,AGTGTCAC,-0.0571
17,CCGTGCAA,-0.0662
18,AGAGTAAG,0.0595
19,GGATGACC,0.114
20,TGAGACAA,0.0625
21,AAGGCACT,-0.175
22,GAACCATA,0.241
